In the supplement of paper PMC10126150:
Sequences with one replicate were seen in a single cluster, so their values are uncertain.

Tested on: ATP
Assay: switch fluorescence ratio, 500 uM ATP over buffer (Cy3 cluster intensity, sum of 5 cycles each) (fold (ratio)); higher = stronger signal-on switching upon ATP binding; sequences stand for … in TCGTCGGCAGCGTCAGATGTGTATAAGAGACAGTTTTTTTTTTTTTTTTTTTTTTTTT…TC
Conditions: aptamer strand: ATP DNA aptamer (quencher-CACCTGGGGGAGTATTGCGGAGGAAGG + anchor), 100 nM annealed; ATP concentration: 500 uM; one replicate
Method in brief: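 After annealing to 100 nM quencher-labelled ATP aptamer, Cy3-labelled switching-strand clusters on a modified Illumina MiSeq flow-cell were imaged in selection buffer. A second image followed after 15 min with 500 uM ATP at 22 °C, and five such buffer/ATP cycles were done, each separated by NaOH stripping and re-annealing. The fluorescence ratio, averaged per switch-domain sequence, is summed target-cycle over summed buffer-cycle Cy3 intensity per cluster, with clusters outside 100-1000 RFU excluded.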
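Also: ATP exposure 15 min at 22 °C before imaging.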

Row | Sequence | switch fluorescence ratio
1 | TTAAATTGGC | 1
2 | TAAGTGCAAT | 1.1
3 | GTATGATGC | 0.946
4 | TCTGTTTTCG | 1.03
5 | TATTTGTAGA | 1.04
6 | TTCGTCCTTA | 0.975
7 | TTACAGTTTA | 1.03
8 | TATACCGTTC | 1.05
9 | CGAAAAGGGT | 0.965
10 | ACGGCCCTTA | 1.05
11 | GGTCTTTCAC | 1.03
12 | TATCAGGTGA | 1.42
13 | TCGAGCTTGA | 1.04
14 | AGTATGATGT | 0.968
15 | CCGGTTCCT | 1.08
16 | AAGTCTCGCG | 0.965
17 | CGGTACATTC | 1.02
18 | GGCCGAGAGT | 0.991
19 | AATTGTAGCA | 0.988
20 | TATGGATGC | 0.998
21 | ACCGAATAAG | 1.19
22 | CTAAGATCCT | 0.928
23 | TTGGGAGTTT | 1.14
24 | TTTACCAAC | 1.14
25 | CCTCGAGGCG | 1.04
26 | AAACGTGCC | 1.22

Row | Sequence | switch fluorescence ratio
27 | TATAATGCT | 0.997
28 | ACACAAGCAT | 1.09
29 | TGTATAATAG | 1
30 | AGTGAGAACG | 1.01
31 | GCATATAAGC | 1.02
32 | AGAAGATAGC | 1.06
33 | TCGTTAAGAC | 1.53
34 | CGGGCTCTT | 0.994
35 | CCCTTGAGAG | 0.994
36 | TCTAGAATAT | 0.963
37 | AGGGCCTGAG | 1.02
38 | GACCATGGTG | 1.14
39 | GAATTTGCTG | 1.06
40 | ACCAGATCAA | 1.06
41 | GATTACTAAC | 1.16
42 | TTCTGTTGTA | 0.972
43 | ACAAAAGGCG | 0.979
44 | CCCTTTCTAT | 1.01
45 | CGTTTAAGGA | 0.989
46 | GTGTTGGGCT | 0.993
47 | GGGTCAGGA | 0.992
48 | ATAGTCCAGG | 1.36
49 | TCGTTCAGTG | 0.989
50 | CTGTTATCTG | 1.04
51 | GGTATACTCA | 1.12
52 | TGGATTTCGA | 1.03

Row | Sequence | switch fluorescence ratio
53 | CAAAAGTCAT | 0.982
54 | GGTCCCAGTT | 1.01
55 | ACTAACGGAA | 1.07
56 | TTCAATGTGT | 0.991
57 | CCTGACCTCT | 1.08
58 | ATGCTAACGC | 1.07
59 | TCTTTACTTT | 1
60 | CAGCATCGTA | 0.979
61 | TTAAGTGCAA | 1.05
62 | CGGTGCGCTA | 0.988
63 | GGCGGGAAAT | 0.992
64 | AAGCTTGATC | 0.994
65 | ATGCGTTTTT | 0.996
66 | AAAATTTTAC | 1.06
67 | CACAAATCGG | 1.02
68 | CATCGAGCGA | 1.15
69 | CCGTATCGGA | 0.995
70 | CGGTCTAACT | 0.977
71 | GACGCTAATT | 2.05
72 | TAGACGTACT | 1.63
73 | TTGGTAGGAA | 1.11
74 | AAACAGTAA | 1.05
75 | ATTCACCGGC | 1.07
76 | AAAAACATTA | 1.05
77 | TAAAAATTTC | 0.977
78 | AAACGCCCG | 1.02

Row | Sequence | switch fluorescence ratio
79 | GAAGGGCCAC | 0.973
80 | GTGGACACAG | 0.964
81 | ATTCGCGTTC | 1.27
82 | GTAAAGGAAC | 1.02
83 | CACGGTCACT | 1.36
84 | AGCTAGTTGA | 0.962
85 | AGCAGCTTTA | 0.989
86 | GAAAATGATA | 1.01
87 | TAGGCCAGGG | 0.98
88 | AGGGAGGTAC | 0.914
89 | CGTGAGTCAC | 0.959
90 | AGCTAGCGA | 1.02
91 | ATTGCGGCCG | 0.976
92 | AGAGAGTAAT | 1.03
93 | AACGTGGCTT | 0.975
94 | TTGAGCCAC | 1.29
95 | CTAGGCCCAG | 1.01
96 | TAAACCTATA | 1.03
97 | GTTAAGAGAA | 1.01
98 | ATACACTGCA | 1.13
99 | CACCAACATA | 1.12
100 | GAGGTGTTAT | 1.05
101 | TATTACTGGA | 1.18
102 | ACAGCACAAA | 1.26
103 | GTCGAACGAA | 1.18
104 | GATCCGCGTG | 1.01

Row | Sequence | switch fluorescence ratio
105 | TCGTAGGCAG | 1.27
106 | TGGGAATAGA | 1.06
107 | GGCCTGACTT | 1.01
108 | AAATCGAATG | 0.97
109 | TGATTAAGGA | 0.981
110 | CAGCGAGCT | 1.04
111 | GTTGGTATGG | 1.01
112 | ATTTCCAAT | 0.967
113 | ATTGTTTGG | 0.947
114 | GTTGTCCGT | 1.08
115 | ATCCTTAATG | 0.996
116 | TGTGATCAAG | 1
117 | TAGTGATATT | 1.06
118 | AGGGTAGGAG | 0.989
119 | TACAACTAAT | 1.04
120 | ATTCAGGGGA | 0.968
121 | TACTTGTCT | 1.03
122 | TGAAAACGAT | 1.02
123 | CTTAGCAGGT | 1.02
124 | GCAGGTGAA | 1.58
125 | CTGATGGTAA | 1.06
126 | GCACCCAGCG | 1.36
127 | TCTTTTGCTG | 0.979
128 | TCGAAGTTCT | 0.969
129 | ATTACATAGC | 1.03
130 | AATCGTAATT | 1.04

Row | Sequence | switch fluorescence ratio
131 | TAAATCCTGT | 1.01
132 | CTGGCCAACT | 0.961
133 | CGGCAACCGT | 1.06
134 | TACAGATAAT | 0.99
135 | ACCAGGGTAT | 0.997
136 | GCGCCGGTTT | 1.05
137 | CCACAGGGGT | 5.62
138 | GATTTCTTGA | 1.01
139 | TGCCCAGAAT | 1.01
140 | TCGTTGTGGC | 0.968
141 | AACAAGTTTT | 1
142 | ATGAGGTAGC | 0.993
143 | GCATTCTGG | 0.995
144 | TTTAATCTGC | 0.953
145 | CATGCGAAA | 1.13
146 | CGAAACACGG | 1.06
147 | GTTGGTTATT | 1
148 | AAGTATCCTG | 0.939
149 | AGCCTTATGG | 1.03
150 | CTCTGTACCG | 0.987
151 | GCCAGTTCTG | 0.992
152 | CTTTCACCGG | 1.04
153 | TTTGTGAAC | 1.04
154 | GACTCTAAAG | 0.987
